Values joined by “and” are separate entries in the source; they are usually repeats but may differ in a detail not shown here. Identical values can stand only once. Counter-ions that a name gives are not always drawn. ± gives the standard deviation of the averaged measurements. Over roughly 2,600 compounds, “total cell number (DAPI+ nuclei) relative to DMSO vehicle control” has its median near -1.4; the lowest 2% begin near -23. This is one part of the list.
test system: jimpy (Plp1 jimpy) mouse iPSC-derived oligodendrocyte progenitor cells; test: total cell number (DAPI+ nuclei) relative to DMSO vehicle control (SDs above negative control mean); higher = more surviving cells; conditions: 10 µM; 3 days

| Compound | total cell number |
| --- | --- |
| Fc1ccc(C(OCCCc2cnc[nH]2)c2ccc(F)cc2)cc1 | -1.91 |
| O=C1CCC(c2ccc(-n3ccnc3)cc2)=NN1 [Imazodan] | -0.785 |
| C=CCN1CCc2cc(O)c(O)cc2C(c2ccccc2)C1 (racemic) | -1.7 |
| COC1=C(OC)C(=O)C(CCCCCCCCCCO)=C(C)C1=O [Idebenone] | 4.47 |
| Cc1cc2nc(NCCCO)n(CC(=O)c3cc(C(C)(C)C)c(O)c(C(C)(C)C)c3)c2cc1C | -4.84 |
| O=C(Nc1cccc2c(=O)cc(-c3nnn[nH]3)oc12)c1ccc(OCCCCc2ccccc2)cc1 [Pranlukast] | -1.51 |
| c1ccc2c(c1)CCC[C@H]2Nc1nc2ccccc2[nH]1 [NS8593 hydrochloride] | -3.1 |
| Cc1ccc(C(=O)Nc2ccc(CN3CCN(C)CC3)c(C(F)(F)F)c2)cc1C#Cc1cnc2cccnn12 | -17.8 |
| CC(C)(C)NC[C@H](O)COc1nsnc1N1CCOCC1 [Timolol Maleate] | -0.189 |
| CC(C)(C)NC[C@H](O)COc1nsnc1N1CCOCC1 [S(-)-Timolol maleate] | -0.296 |
| COc1cc(OC)c2c(=O)[nH]c(-c3cc(C)c(OCCO)c(C)c3)nc2c1 | -2.09 |
| Oc1ccccc1O [Pyrocatechol] | -10.2 |
| COc1cccc(NC(=O)/C=C/c2ccc(Cl)cc2)c1 | -5.65 |
| NCCOc1cc(C(=O)Nc2cc(OCCN)c3ccccc3n2)nc(C(=O)Nc2cc(OCCN)c3ccccc3n2)c1 [Pyridostatin trifluoroacetate salt] | -6.18 |
| CO/N=C(\C(=O)N[C@@H]1C(=O)N2C(C(=O)O)=C(CSc3nc(=O)c(O)nn3C)CS[C@H]12)c1csc(N)n1 [Ceftriaxone sodium] | -1.57 |
| FC(F)(F)c1ccccc1-n1ccnc1 [1-[2-(Trifluoromethyl)phenyl]imidazole] | -1.32 |
| CC(C)[C@H]1C(=O)N[C@@H](CCCNC(=N)N)C(=O)NCC(=O)N[C@@H](CC(=O)O)C(=O)N[C@H](Cc2ccccc2)C(=O)N1C [Cilengitide] | 1.19 |
| COc1ccc(CCN(C)CCCC(C#N)(c2cc(OC)c(OC)c(OC)c2)C(C)C)cc1OC (racemic) [(±)-Methoxyverapamil hydrochloride] | -2.78 |
| O=C(c1cccc(Cl)c1F)N1CCN(Cc2cccc(Nc3nccs3)n2)CC1 | -5.43 |
| Cc1scc2c1N(C(=O)CN1CCN(C)CC1)c1ccccc1NC2=O [Telenzepine dihydrochloride] | -0.695 |
| CN(C)CCC(c1ccc(Cl)cc1)c1ccccn1 (single isomer, unassigned; (+)) [(+)-Chlorpheniramine maleate] | -2.19 |
| Cn1c(=O)cc(N2CCC[C@@H](N)C2)n(Cc2cc(F)ccc2C#N)c1=O [Trelagliptin] | -0.519 |
| CCCCCCCCCCCCCCCC(=O)OC[C@H](COP(=O)(O)OCCNC(=O)[C@H](C)NC(=O)CC[C@@H](NC(=O)[C@H](C)NC(=O)[C@@H](C)O[C@H]1[C@H](O)[C@@H](CO)OC(O)[C@@H]1NC(C)=O)C(N)=O)OC(=O)CCCCCCCCCCCCCCC (stereo partly drawn) [Mifamurtide] | -0.249 |
| Cn1c(=O)c2nc[nH]c2n(C)c1=O [Theophylline] | -0.885 |
| C=C1c2cccc(O)c2C(=O)C2=C(O)[C@]3(O)C(=O)C(C(N)=O)=C(O)[C@@H](N(C)C)[C@@H]3[C@@H](O)[C@H]12 [Methacycline HCl] | 0.98 |
| c1ccc(C2CN3CCSC3=N2)cc1 (stereo not drawn) [Tetramisole hydrochloride] | -0.22 |

| Compound | total cell number |
| --- | --- |
| CCCN[C@H]1CCc2nc(N)sc2C1 [Pramipexole] | 0.746 |
| CCCN[C@H]1CCc2nc(N)sc2C1 [Pramipexole dihydrochloride] | -0.809 |
| CC(C)(C)Cn1c(N)nc2ccc(-c3[nH]c(C(C)(C)C)nc3-c3ccc(F)cc3)nc21 | -11.9 |
| OC[C@H]1O[C@H]([S-])[C@H](O)[C@@H](O)[C@@H]1O.[Au+] [Aurothioglucose] | -2.94 |
| CCC(=O)N1CCN(C(=O)c2ccccc2)CC1 | -0.463 |
| CCOC(=O)c1ccc(OC(=O)CCCCCNC(=N)N)cc1 [Gabexate Mesylate] | 1.19 |
| Cc1cc(=O)oc2cc(O)ccc12 [4-Methylumbelliferone (4-MU)] | 0.218 |
| CNC(=O)c1cc2c(cn1)[nH]c1ccccc12 [N-Methyl-beta-carboline-3-carboxamide] | -0.846 |
| COc1cc(/C=C/C(=O)N2CCN(CC(=O)N3CCCC3)CC2)cc(OC)c1OC [Cinepazide maleate] | -0.73 |
| O=C(Nc1ccc(OC(F)(F)F)cc1)c1sccc1NCc1ccnc2ccccc12 | 8.56 |
| CCCCCCCCCCCCCCCCCCOP(=O)([O-])OC1CC[N+](C)(C)CC1 [Perifosine] | -0.796 |
| CC(=O)Nc1cccc2c1c(Sc1ccc(Cl)cc1)c(C)n2CC(=O)O | -0.575 |
| CCCNC(C)C(=O)Nc1ccccc1C (stereo not drawn) [Prilocaine hydrochloride] | -1.95 |
| CCCNC(C)C(=O)Nc1ccccc1C (stereo not drawn) [Prilocaine] | -0.723 |
| COc1ccc(CN(CCN(C)C)c2ccccn2)cc1 [Pyrilamine maleate] | -0.472 |
| Nc1ncn([C@@H]2O[C@H](CO)[C@@H](O)[C@H]2O)c(=O)n1 [5-azacytidine] | -2.67 |
| Nc1ncn([C@@H]2O[C@H](CO)[C@@H](O)[C@H]2O)c(=O)n1 [Azacitidine] | -1.65 |
| CC(COc1ccccc1)N(CCCl)Cc1ccccc1 (stereo not drawn) [Phenoxybenzamine HCl] | 0.335 |
| CCSC(=N)N [S-Ethylisothiourea hydrobromide] | -0.322 |
| CC(=O)c1ccc(S(=O)(=O)NC(=O)NC2CCCCC2)cc1 [Acetohexamide] | 1.18 |
| Clc1ccc(C(Cn2ccnc2)OCc2c(Cl)cccc2Cl)c(Cl)c1 (stereo not drawn) [Isoconazole nitrate] | 8.89 |
| COc1ccccc1CNC1CCCNC1c1ccccc1 (stereo not drawn) | -2.77 |
| NC(=O)N1c2ccccc2C=Cc2ccccc21 [Carbamazepine] | 0.271 ± 1.6 |
| CCOC(=O)C1=C(C)NC(C)=C(C(=O)OCC)C1c1c(F)c(F)c(F)c(F)c1F [Nemadipine-A] | -0.654 |
| CC(C)n1nc(-c2cc3cc(O)ccc3[nH]2)c2c(N)ncnc21 | -12 |
| CN(C)CCN(Cc1cccs1)c1ccccn1 [Methapyrilene hydrochloride] | -0.917 |

| Compound | total cell number |
| --- | --- |
| O=c1ncccn1[C@@H]1O[C@H](CO)[C@@H](O)[C@H]1O [Zebularine] | 1.16 |
| O=C(CCCCCCNC(=O)c1cnc(N(c2ccccc2)c2ccccc2)nc1)NO [Rocilinostat (ACY-1215)] | -9.28 |
| NC(CO)(CO)CO [Trometamol] | -0.542 |
| c1cnc2cc3c(cc2n1)[C@@H]1CNC[C@H]3C1 [Varenicline tartrate] | -2.7 |
| c1cnc2cc3c(cc2n1)[C@@H]1CNC[C@H]3C1 [Varenicline Tartrate] | 1.55 |
| C[C@@H](N)[C@H]1CC[C@H](C(=O)Nc2ccncc2)CC1 | -1.42 and -2.14 |
| CCCCCN(CCCOC)C(=O)C(CCC(=O)O)NC(=O)c1ccc(Cl)c(Cl)c1 (stereo not drawn) [Loxiglumide] | -0.322 |
| CO[C@H]1/C=C/O[C@@]2(C)Oc3c(C)c(O)c4c(c3C2=O)C2=NC3(CCN(CC(C)C)CC3)NC2=C(NC(=O)/C(C)=C\C=C\[C@H](C)[C@H](O)[C@@H](C)[C@@H](O)[C@@H](C)[C@H](OC(C)=O)[C@@H]1C)C4=O [Rifabutin] | -6.51 |
| O=c1cc(-c2ccc(O)cc2)oc2cc(O)cc(O)c12 [Apigenin] | -2.8 ± 0.38 |
| O=C1CN2Cc3c(ccc(Cl)c3Cl)N=C2N1 [Anagrelide HCl] | -0.876 |
| CN(C)Cc1c(C(=O)NCCOc2ccc(C(=O)NO)cc2)oc2ccccc12 | -20.2 |
| CC(C)NCC(O)COc1ccc(COCCOC(C)C)cc1 (stereo not drawn) [Bisoprolol hemifumarate salt] | -1.73 |
| CC(C)NCC(O)COc1ccc(COCCOC(C)C)cc1 (stereo not drawn) [Bisoprolol fumarate] | -22.3 |
| CC(N)(C(=O)O)c1ccc(C(=O)O)cc1 (racemic) [(±)-alpha-Methyl-4-carboxyphenylglycine] | -1.73 |
| COc1ccc(-c2cc(=O)c3c(O)cc(O)cc3o2)cc1O [Diosmetin] | -5.03 |
| CC(N)=O [Acetamide] | 0.578 |
| CN1CC[C@H](c2c(O)cc(O)c3c(=O)cc(-c4ccccc4Cl)oc23)[C@H](O)C1 [Flavopiridol HCl] | -8.34 |
| Nc1nc(Cl)nc2c1ncn2[C@@H]1O[C@H](CO)[C@@H](O)[C@@H]1F [Clofarabine] | -21.2 |
| CC(C)CC(=O)Nc1n[nH]c2c1CN(C(=O)C1CCN(C)CC1)C2(C)C | -14.7 |
| C=C1CC[C@H](O)C/C1=C/C=C1\CCC[C@]2(C)[C@@H]([C@H](C)CCCC(C)(C)O)CC[C@@H]12 [Calcifediol] | -1.15 |
| O=C(NCCS(=O)(=O)c1ccc(C(F)(F)F)cn1)c1ccc(Cl)cc1 | -0.0247 |
| CC[C@H]1OC(=O)[C@H](C)[C@@H](O[C@H]2C[C@@](C)(OC)[C@@H](O)[C@H](C)O2)[C@H](C)[C@@H](O[C@@H]2O[C@H](C)C[C@H](N(C)C)[C@H]2O)[C@](C)(O)C[C@@H](C)/C(=N\OCOCCOC)[C@H](C)[C@@H](O)[C@]1(C)O [Roxithromycin] | -0.808 |
| O=C1NC(=O)[C@@]2(CCOc3ccc(F)cc32)N1 [Sorbinil] | -1.06 |
| CCc1cccc(N(C)C(=N)Nc2cccc3ccccc23)c1 | -6.57 |
| O=C(N/N=C/c1ccc(O)c(O)c1)c1cc2ccccc2cc1O [Dynasore] | -11.3 |
| C=CC[C@@H]1/C=C(\C)C[C@H](C)C[C@H](OC)[C@H]2O[C@@](O)(C(=O)C(=O)N3CCCC[C@H]3C(=O)O[C@H](/C(C)=C/[C@@H]3CC[C@@H](O)[C@H](OC)C3)[C@H](C)[C@@H](O)CC1=O)[C@H](C)C[C@@H]2OC [Tacrolimus (FK506)] | -1.02 |

— the supplement of paper PMC6135742
